Growth of fresh clinical P. falciparum isolates by hypoxanthine uptake over 42 h; for most isolates 1.6-1,647 nM mefloquine, 0.044-87 nM artesunate, 10-10,256 nM chloroquine, 2.4-236 nM lumefantrine. EC50, lower = more sensitive; slope from the same fit, higher = steeper. No active / inactive call. Fits with a coefficient of variation above 100% are not listed here; 15-28% of fits exceed 15%. Isolates are numbered anew.
What was measured:
[1] = compound: T1, C[C@H]1[C@H](OC(=O)CCC(=O)O)O[C@@H]2O[C@@]3(C)CC[C@H]4[C@H](C)CC[C@@H]1[C@@]24OO3 [artesunate]
Procedure: (§1)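 Hypoxanthine uptake by fresh isolates, duplicate serial dilutions, 24 h of drug plus 18 h after the label; sigmoid fit per isolate.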

[2] = compound: T2, OC(c1cc(C(F)(F)F)nc2c(C(F)(F)F)cccc12)C1CCCCN1 [mefloquine]
Procedure: as §1

[3] = compound: T3, CCN(CC)CCCC(C)Nc1ccnc2cc(Cl)ccc12 [chloroquine]
Procedure: as §1

[4] = compound: T4, CCCCN(CCCC)CC(O)c1cc(Cl)cc2c1-c1ccc(Cl)cc1/C2=C/c1ccc(Cl)cc1 [lumefantrine]
Procedure: as §1

[5] = compound: T1, artesunate; experiment: slope of the dose-response curve (dimensionless); higher = steeper concentration-effect curve
Procedure: as §1

[6] = compound: T2, mefloquine; experiment: as above
Procedure: as §1

[7] = compound: T3, chloroquine; experiment: as above
Procedure: as §1

[8] = compound: T4, lumefantrine; experiment: as above
Procedure: as §1

Test System	EC50 of parasite growth [1]	EC50 of parasite growth [2]	EC50 of parasite growth [3]	EC50 of parasite growth [4]	slope [5]	slope [6]	slope [7]	slope [8]
Plasmodium falciparum isolate 423 (pfmdr1 allele: 86N, 1042N, pfmdr1 copies: 2)	0.000427 mg/L	0.0505 mg/L	0.0744 mg/L	0.0366 mg/L	6.6	4.11	2.81	1.93
Plasmodium falciparum isolate 454 (pfmdr1 allele: 86N, 1042N, pfmdr1 copies: 1)	0.00165 mg/L	0.00817 mg/L	0.0539 mg/L	0.0519 mg/L	9.96	2.51	5.75	10
Plasmodium falciparum isolate 404 (pfmdr1 allele: 1042D, pfmdr1 copies: 1)	0.000557 mg/L	0.00839 mg/L	0.0803 mg/L	0.0154 mg/L	4.79	2.82	4.47	2.68
Plasmodium falciparum isolate 228 (pfmdr1 allele: 86Y, pfmdr1 copies: 1)	0.000543 mg/L	0.0145 mg/L	0.243 mg/L	0.0214 mg/L	7.71	3.46	4.06	2.42
Plasmodium falciparum isolate 245 (pfmdr1 allele: 86N, 1042N, pfmdr1 copies: 1)	0.000327 mg/L	0.0144 mg/L	0.0734 mg/L	0.00952 mg/L	5.37	2.25	3.44	1.82
Plasmodium falciparum isolate 485 (pfmdr1 allele: 86N, 1042N, pfmdr1 copies: 1)	0.000395 mg/L	0.0103 mg/L	0.11 mg/L	0.0095 mg/L	5.28	2.58	3.66	2.42
Plasmodium falciparum isolate 159 (pfmdr1 allele: 86N, 1042N, pfmdr1 copies: 1)	0.000591 mg/L	0.0321 mg/L	0.0925 mg/L	0.0134 mg/L	6.53	2.37	2.97	2.65
Plasmodium falciparum isolate 240 (pfmdr1 allele: 86N, 1042N, pfmdr1 copies: 1)	0.00272 mg/L	0.128 mg/L	0.115 mg/L	0.112 mg/L	7.97	6.6	2.43	3.89
Plasmodium falciparum isolate 216 (pfmdr1 allele: 86N, 1042N, pfmdr1 copies: 1)	0.000384 mg/L	0.0208 mg/L	0.199 mg/L	0.0106 mg/L	3.45	2.86	4.18	1.66
Plasmodium falciparum isolate 440 (pfmdr1 allele: 86N, 1042N, pfmdr1 copies: 1)	0.000791 mg/L	0.0257 mg/L	0.0784 mg/L	0.0329 mg/L	4.42	2.76	3.83	2.5
Plasmodium falciparum isolate 373 (pfmdr1 allele: 86N, 1042N, pfmdr1 copies: 1)	0.000459 mg/L	0.0293 mg/L	0.193 mg/L	0.014 mg/L	6.09	2.55	4.75	1.86
Plasmodium falciparum isolate 351 (pfmdr1 allele: 86N, 1042N, pfmdr1 copies: 1)	0.000749 mg/L	0.0196 mg/L	0.122 mg/L	0.0194 mg/L	6.44	3.25	4.08	2.19
Plasmodium falciparum isolate 409 (pfmdr1 allele: 86Y, pfmdr1 copies: 1)	0.0012 mg/L	0.0172 mg/L	0.29 mg/L	0.0351 mg/L	5.23	1.92	2.91	2.19
Plasmodium falciparum isolate 14 (pfmdr1 allele: 86N, 1042N, pfmdr1 copies: 3)	0.00108 mg/L	0.0574 mg/L	0.057 mg/L	0.0363 mg/L	5.97	4.29	2.39	2.09
Plasmodium falciparum isolate 58 (pfmdr1 allele: 86N, 1042N, pfmdr1 copies: 2)	0.00212 mg/L	0.0664 mg/L	0.073 mg/L	0.0623 mg/L	2.85	2.94	2.8	2.49
Plasmodium falciparum isolate 364 (pfmdr1 allele: 86N, 1042N, pfmdr1 copies: 2)	0.000723 mg/L	0.0944 mg/L	0.0701 mg/L	0.0534 mg/L	5.43	5.16	2.57	3.2
Plasmodium falciparum isolate 129 (pfmdr1 allele: 86N, 1042N, pfmdr1 copies: 2)	0.0023 mg/L	0.0456 mg/L	0.0922 mg/L	0.0361 mg/L	5.48	1.85	3.61	1.27
Plasmodium falciparum isolate 138 (pfmdr1 allele: 86Y, pfmdr1 copies: 1)	0.00112 mg/L	0.0183 mg/L	0.179 mg/L	0.0286 mg/L	3.05	3.05	7.55	2.27
Plasmodium falciparum isolate 350 (pfmdr1 allele: 86N, 1042N, pfmdr1 copies: 1)	0.00238 mg/L	0.014 mg/L	0.187 mg/L	0.00705 mg/L	3.69	1.86	6.27	2.64
Plasmodium falciparum isolate 439 (pfmdr1 allele: 86N, 1042N, pfmdr1 copies: 1)	0.00148 mg/L	0.0529 mg/L	0.116 mg/L	0.051 mg/L	10	4.98	2.97	2.91
Plasmodium falciparum isolate 354 (pfmdr1 allele: 86N, 1042N, pfmdr1 copies: 1)	0.000596 mg/L	0.0177 mg/L	0.315 mg/L	0.0198 mg/L	4.37	1.83	2.69	2.5

Test System	EC50 of parasite growth [1]	EC50 of parasite growth [2]	EC50 of parasite growth [3]	EC50 of parasite growth [4]	slope [5]	slope [6]	slope [7]	slope [8]
Plasmodium falciparum isolate 59 (pfmdr1 allele: 86N, 1042N, pfmdr1 copies: 1)	0.000766 mg/L	0.0295 mg/L	0.154 mg/L	0.0136 mg/L	4.52	3.22	3.55	2.07
Plasmodium falciparum isolate 77 (pfmdr1 allele: 86N, 1042N, pfmdr1 copies: 2)	0.000298 mg/L	0.019 mg/L	0.112 mg/L	0.0362 mg/L	5.32	2.51	2.96	3.72
Plasmodium falciparum isolate 360 (pfmdr1 allele: 86N, 1042N, pfmdr1 copies: 1)	0.000169 mg/L	0.00553 mg/L	0.0893 mg/L	0.0132 mg/L	2.1	1.18	2.34	0.988
Plasmodium falciparum isolate 258 (pfmdr1 allele: 86N, 1042N, pfmdr1 copies: 1)	0.00314 mg/L	0.032 mg/L	0.0798 mg/L	0.0205 mg/L	5.82	1.77	5.33	2.31
Plasmodium falciparum isolate 286 (pfmdr1 allele: 86N, 1042N, pfmdr1 copies: 1)	0.00291 mg/L	0.0359 mg/L	0.225 mg/L	0.0556 mg/L	3.12	2.47	4.18	2.59
Plasmodium falciparum isolate 2 (pfmdr1 allele: 86N, 1042N, pfmdr1 copies: 1)	0.000857 mg/L	0.021 mg/L	0.0874 mg/L	0.00797 mg/L	9.99	1.6	9.73	1.81
Plasmodium falciparum isolate 296 (pfmdr1 allele: 86N, 1042N, pfmdr1 copies: 3)	0.00411 mg/L	0.066 mg/L	0.0957 mg/L	0.0366 mg/L	9.99	3.64	5.92	2.23
Plasmodium falciparum isolate 425 (pfmdr1 allele: 86N, 1042N, pfmdr1 copies: 2)	0.00268 mg/L	0.0425 mg/L	0.181 mg/L	0.0528 mg/L	4.28	2.84	3.2	4.08
Plasmodium falciparum isolate 349 (pfmdr1 allele: 86N, 1042N, pfmdr1 copies: 2)	0.00209 mg/L	0.0691 mg/L	0.12 mg/L	0.0261 mg/L	6.33	3.66	3.79	2.15
Plasmodium falciparum isolate 307 (pfmdr1 allele: 86N, 1042N, pfmdr1 copies: 1)	0.001 mg/L	0.0355 mg/L	0.0829 mg/L	0.0383 mg/L	5.63	1.91	5.06	2.01
Plasmodium falciparum isolate 252 (pfmdr1 allele: 86N, 1042N, pfmdr1 copies: 3)	0.00724 mg/L	0.0699 mg/L	0.073 mg/L	0.0209 mg/L	4.41	2.87	2.38	3.28
Plasmodium falciparum isolate 239 (pfmdr1 allele: 86Y, pfmdr1 copies: 1)	0.000362 mg/L	0.00634 mg/L	0.172 mg/L	0.00858 mg/L	5.28	2.73	6.59	2.28
Plasmodium falciparum isolate 106 (pfmdr1 allele: 86Y, pfmdr1 copies: 1)	0.000482 mg/L	0.00483 mg/L	0.173 mg/L	0.0145 mg/L	10	2.73	12.4	2.34
Plasmodium falciparum isolate 224 (pfmdr1 allele: 86N, 1042N, pfmdr1 copies: 2)	0.00104 mg/L	0.0108 mg/L	0.0838 mg/L	0.0208 mg/L	4.54	3.7	4.03	2.91
Plasmodium falciparum isolate 72 (pfmdr1 allele: 86N, 1042N, pfmdr1 copies: 1)	0.000432 mg/L	0.0131 mg/L	0.0667 mg/L	0.00556 mg/L	4.73	5.44	3.67	5.01
Plasmodium falciparum isolate 382 (pfmdr1 allele: 86N, 1042N, pfmdr1 copies: 1)	0.000641 mg/L	0.015 mg/L	0.327 mg/L	0.00459 mg/L	3.09	1.95	6.76	1.91
Plasmodium falciparum isolate 120 (pfmdr1 allele: 86N, 1042N, pfmdr1 copies: 1)	0.00175 mg/L	0.0365 mg/L	0.376 mg/L	0.0122 mg/L	8.22	3.29	9.09	1.98
Plasmodium falciparum isolate 366 (pfmdr1 allele: 86N, 1042N, pfmdr1 copies: 1)	0.000185 mg/L	0.00561 mg/L	0.0727 mg/L	0.00926 mg/L	4.9	3.06	3.25	1.94
Plasmodium falciparum isolate 101 (pfmdr1 allele: 86N, 1042N, pfmdr1 copies: 2)	0.00449 mg/L	0.0555 mg/L	0.0967 mg/L	0.0226 mg/L	4.53	3.72	4.99	3.36
Plasmodium falciparum isolate 335 (pfmdr1 allele: 86N, 1042N, pfmdr1 copies: 1)	0.000834 mg/L	0.0164 mg/L	0.208 mg/L	0.0124 mg/L	3.65	2.24	5.45	1.94
